Assay results taken from PubChem BioAssay AID504333 (National Center for Advancing Translational Sciences (NCATS), 2011).
Screen size: about 360,000 compounds; about 16,000 (4.4%) were called active. Inconclusive means that the source gave no clear call. Such entries were picked first, then a sample of the others. Calls follow the shape of the dose curve; as a rule, active = well fitted inhibition curve with a large enough effect; inconclusive = small, poorly fitted or top-dose-only effect; inactive = no such curve, though single readings can be large or run the other way. Potencies of inconclusive entries are doubtful fits and often do not repeat.

Target: Bromodomain adjacent to zinc finger domain protein 2B (Homo sapiens) (UniProt Q9UIF8)
Assay: qHTS Assay for Inhibitors of BAZ2B; also: nearly all actives have a fitted effect of over 60% in size
Details: AlphaScreen BAZ2B-H3K14Ac peptide displacement; activity change, negative = inhibition: at 114 µM (top of the series) unless noted
Summary of the method: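 Protein-peptide AlphaScreen: BAZ2B 50 nM, b-H3K14Ac 50 nM, 1x PBS pH 7.4 + 0.01% Tween-20. Preincubation 30 min RT; cpd 30 min RT (top 110 uM); beads 20 min RT, light-protected.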
% is scaled to controls: 0 for no effect and ±100 for the full control effect; potency is read from the fitted curve at half-maximal effect; tags tell the direction and shape of the fitted curve.

Chain of UniProt Q9UIF8 (Q9UIF8 whole entry, looked up, the tested form may be a part): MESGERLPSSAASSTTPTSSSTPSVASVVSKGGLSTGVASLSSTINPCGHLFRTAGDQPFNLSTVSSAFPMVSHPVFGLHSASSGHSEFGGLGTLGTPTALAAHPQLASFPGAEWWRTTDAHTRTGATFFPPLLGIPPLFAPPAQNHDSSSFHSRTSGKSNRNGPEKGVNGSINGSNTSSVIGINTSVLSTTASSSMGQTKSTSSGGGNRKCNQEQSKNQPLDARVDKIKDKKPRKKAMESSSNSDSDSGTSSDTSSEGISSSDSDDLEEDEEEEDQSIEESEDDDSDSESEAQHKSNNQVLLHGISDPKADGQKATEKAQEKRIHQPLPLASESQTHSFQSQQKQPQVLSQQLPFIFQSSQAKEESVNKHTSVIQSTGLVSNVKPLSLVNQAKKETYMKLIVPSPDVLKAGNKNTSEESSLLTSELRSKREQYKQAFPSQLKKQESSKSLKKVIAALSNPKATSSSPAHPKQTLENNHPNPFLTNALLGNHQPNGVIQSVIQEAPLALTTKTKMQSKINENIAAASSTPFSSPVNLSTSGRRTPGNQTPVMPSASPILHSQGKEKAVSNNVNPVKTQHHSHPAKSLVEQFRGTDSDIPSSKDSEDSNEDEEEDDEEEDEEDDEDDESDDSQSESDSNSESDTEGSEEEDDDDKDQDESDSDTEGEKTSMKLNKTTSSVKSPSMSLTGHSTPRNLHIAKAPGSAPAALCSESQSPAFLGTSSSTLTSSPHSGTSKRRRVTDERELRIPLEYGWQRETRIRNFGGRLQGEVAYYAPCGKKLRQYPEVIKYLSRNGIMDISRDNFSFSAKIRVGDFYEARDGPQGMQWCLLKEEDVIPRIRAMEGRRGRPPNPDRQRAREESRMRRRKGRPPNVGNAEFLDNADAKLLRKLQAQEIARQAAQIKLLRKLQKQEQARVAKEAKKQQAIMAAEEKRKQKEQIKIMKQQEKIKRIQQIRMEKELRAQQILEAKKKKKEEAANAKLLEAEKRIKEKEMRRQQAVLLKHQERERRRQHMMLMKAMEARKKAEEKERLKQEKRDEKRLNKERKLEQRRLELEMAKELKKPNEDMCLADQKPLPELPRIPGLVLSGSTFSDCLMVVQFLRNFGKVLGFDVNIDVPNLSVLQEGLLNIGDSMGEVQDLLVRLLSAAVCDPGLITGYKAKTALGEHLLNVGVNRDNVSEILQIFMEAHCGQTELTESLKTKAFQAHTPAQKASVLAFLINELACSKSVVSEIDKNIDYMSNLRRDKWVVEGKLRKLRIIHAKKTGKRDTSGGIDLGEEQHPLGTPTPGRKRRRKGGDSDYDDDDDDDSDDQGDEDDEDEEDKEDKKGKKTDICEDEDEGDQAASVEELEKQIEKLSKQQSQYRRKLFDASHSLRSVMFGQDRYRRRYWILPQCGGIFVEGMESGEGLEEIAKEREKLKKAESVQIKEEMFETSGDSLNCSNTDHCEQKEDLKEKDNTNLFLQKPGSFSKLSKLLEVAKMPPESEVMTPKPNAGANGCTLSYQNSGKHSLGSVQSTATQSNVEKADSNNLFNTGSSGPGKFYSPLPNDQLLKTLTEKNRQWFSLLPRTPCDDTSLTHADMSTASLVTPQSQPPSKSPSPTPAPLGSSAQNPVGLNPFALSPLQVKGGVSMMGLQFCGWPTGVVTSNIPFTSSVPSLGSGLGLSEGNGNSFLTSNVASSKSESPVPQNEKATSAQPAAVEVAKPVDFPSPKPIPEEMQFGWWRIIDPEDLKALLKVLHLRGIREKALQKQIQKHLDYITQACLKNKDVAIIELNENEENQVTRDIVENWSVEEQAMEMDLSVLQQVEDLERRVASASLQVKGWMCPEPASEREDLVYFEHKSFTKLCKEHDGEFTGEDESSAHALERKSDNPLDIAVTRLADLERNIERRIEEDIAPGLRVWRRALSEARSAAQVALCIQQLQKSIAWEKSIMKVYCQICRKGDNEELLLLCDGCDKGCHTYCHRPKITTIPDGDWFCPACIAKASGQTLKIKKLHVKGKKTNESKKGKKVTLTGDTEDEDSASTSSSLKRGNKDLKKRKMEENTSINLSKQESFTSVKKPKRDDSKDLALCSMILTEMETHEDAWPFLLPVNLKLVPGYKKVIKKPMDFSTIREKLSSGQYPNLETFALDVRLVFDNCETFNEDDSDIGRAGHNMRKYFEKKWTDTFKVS

Question: With `Cc1oc2c(C)c3oc(=O)c(CC(=O)N[C@@H](CC(C)C)C(=O)N[C@@H](Cc4ccccc4)C(=O)O)c(C)c3cc2c1C` as the molecule, how does the Potency read?
Answer: active: 35.5 µM

Question: How did the Potency turn out when `COC(=O)c1ccc(NS(=O)(=O)c2ccc3c(c2)n(C)c(=O)n3C)cc1` was run?
Answer: inconclusive: 79.4 µM [inhibitor, partial curve]

Question: Which Potency does the source give for `CCc1c(C)[nH]c(=S)c(C#N)c1C` here?
Answer: inconclusive: 79.4 µM [inhibitor, single point]

Question: `Cc1nc(-c2ccccc2)sc1C(=O)/C=C/N(C)C` was tested. Which Potency did it give?
Answer: inconclusive: 89.1 µM [inhibitor, single point]

Question: `CC1C(c2ccccc2)N(C)C(c2ccccc2)C(C)C1(O)C#Cc1ccccc1` (centres undefined) was tested. Which Potency did it give?
Answer: inconclusive: 89.1 µM [inhibitor, single point]

Question: With `CCc1ccc(-c2cc(C)no2)cc1S(=O)(=O)N1CCN(C(=O)c2ccco2)CC1` as the molecule, how does the Potency read?
Answer: inconclusive: 25.1 µM [inhibitor, full curve]

Question: With `COC(=O)C1Cc2ccccc2CN1C(=O)CCl` (centres undefined) as the molecule, how does the Potency read?
Answer: inconclusive: 70.8 µM [inhibitor, partial curve]

Question: With `COc1ccc(Cl)cc1S(=O)(=O)N1CCC(C(=O)NCc2ccco2)CC1` as the molecule, how does the Potency read?
Answer: inconclusive: 79.4 µM [inhibitor, single point]

Question: Which Potency does the source give for `Cc1cc(N2CCN(c3ccccc3F)CC2)nc2cc(O)ccc12` here?
Answer: inconclusive: 89.1 µM [inhibitor, single point]

Question: How did the Potency turn out when `CC(=O)Nc1ccccc1NS(=O)(=O)c1ccccc1[N+](=O)[O-]` was run?
Answer: inconclusive: 79.4 µM [inhibitor, single point]

Question: Which “activity change, negative = inhibition” value does the source give for `O=C1NC(c2ccccc2)(C(F)(F)F)SC2=CCCCCN12` (centres undefined) here?
Answer: inactive: 11.5%

Question: How did the “activity change, negative = inhibition” value turn out when `O=C1c2ccccc2C(=O)C1c1ccnc2ccccc12` was run?
Answer: inactive: 3.26%

Question: How did the Potency turn out when `C=CCN1C(=O)C(CC(=O)O)S/C1=N/N=C/c1ccc(N(CC)CC)cc1` (centres undefined) was run?
Answer: inconclusive: 79.4 µM [inhibitor, single point]

Question: How did the “activity change, negative = inhibition” value turn out when `O=C(c1cccc(N2C(=O)C3CC=CCC3C2=O)c1)N1CCCc2ccccc21` (centres undefined) was run?
Answer: inactive: -27.7%

Question: `CSc1ccc(CCNC(=O)CCc2nnc3ccc(N4CCCC4)nn23)cc1` was tested. Which Potency did it give?
Answer: inconclusive: 100 µM [inhibitor, single point]

Question: For `CCCNC(=S)N1CCC(C(=O)c2ccc(F)cc2)CC1`, which Potency is on record?
Answer: inconclusive: 89.1 µM [inhibitor, single point]

Question: With `CCCOc1ccc(-c2cn3ccccc3n2)cc1` as the molecule, how does the Potency read?
Answer: inconclusive: 89.1 µM [inhibitor, single point]

Question: How did the “activity change, negative = inhibition” value turn out when `CCCCCN1C(C(=O)c2ccccc2)=C(NC(=O)c2ccc(C)cc2)c2ccccc2S1(=O)=O` was run?
Answer: inactive: -19.3%

Question: `CCOc1ccc(NC(=O)c2c(NCc3cccnc3)sc3c2CCC(C)C3)cc1` (centres undefined) was tested. Which Potency did it give?
Answer: inconclusive: 79.4 µM [inhibitor, partial curve]
